Hit rate of the full screen: of about 140,000 compounds, about 240 (0.17%) were called active. The shares of active, inactive and inconclusive entries below differ from those in the screen. The call rests on the fitted dose curve; in most records, active means well fitted inhibition curve with a large enough effect; inconclusive means small, poorly fitted or top-dose-only effect; inactive means no such curve, though single readings can be large or run the other way. Where the call is inconclusive, the potency comes from a doubtful curve fit.
Assay: Primary qHTS assay for inhibitors of alpha-synuclein gene (SNCA) expression; further: nearly all actives have a fitted effect of over 45% in size
Conditions: HEK-293 SNCA-luciferase knock-in, luminescence, 24 h; series mostly up to 57.2 µM
Text: Assay Submitter (PI): Daniel R. Scoles Ph.D.
Department of Neurology, University of Utah, Salt Lake City, Utah
Accumulation of alpha-synuclein is a main underlying pathological feature of Parkinson's disease (PD) and alpha-synucleinopathies, for which lowering expression of the alpha-synuclein gene (SNCA) is a potential therapeutic avenue. Using a cell-based luciferase reporter of SNCA expression we performed a quantitative high throughput screen (qHTS) of 155,885 compounds in dose response. The screening assay was generated using genome editing to insert the luciferase gene downstream and in frame of the SNCA gene in HEK-293 cells (1). A viability counterscreen using GF-AFC was used to eliminate cytotoxic and false positive compounds. After in silico analysis (clustering, removal of frequent hitter nuisance chemotypes), inhibitor compounds from the primary screen were selected for follow up and re-tested at 11-doses in the SNCA-luc cells (luciferase and GF-AFC confirmation), and in CMV-luc expressing cell line to flag general transcriptional repressors.
Described herein are the results of the primary screen for SNCA inhibitors; decrease in luciferase signal (inhibition of the SNCA gene expression) is the desired output for this assay.
1. Dansithong, W., Paul, S., Scoles, D. R., Pulst, S. M., and Huynh, D. P. (2015) Generation of SNCA Cell Models Using Zinc Finger Nuclease (ZFN) Technology for Efficient High-Throughput Drug Screening. PLoS ONE 10, e0136930.
SEQUENCE No. (e.g., 1, 2, 3, etc.); […] (e.g., Cells, Incubation, Reagent, etc.); VALUE; DESCRIPTION
1; Cells; 4 uL; Dispense 1500 HEK-293-SNCA-luc cells/well into Greiner 1536-well white / solid bottom tissue culture treated plate. The plate was covered with metal lids with gas-exchange holes.
2; Incubate; 24 hours; Incubate at 37C, 5% CO2, 95% RH.
3; Compounds; 23 nL; Compounds and controls were transferred via a Kalypsys Pin Tool (Wako USA) equipped with a 1536-slotted pin array. The plate was covered with metal lids with gas-exchange holes.
4; Incubate; 24 hours; Incubate at 37C, 5% CO2, 95% RH.
5; Dispense; 1 uL; Dispense Gly-Phe-7-amino-4-trifluoromethylcoumarin (GF-AFC, prepared at 125 uM in PBS) was added. The plate was covered with metal lids with gas-exchange holes.
6; Incubate; 30 min; Incubate at 37C, 5% CO2.
7; Detector; Fluorescence; Measure fluorescence with ViewLux microplate reader (PerkinElmer) equipped with 405/10 excitation and 540/25 emission filters.
8; Dispense; 3 uL; Dispense ONE-Glo ([…]) lucifase detection reagent was added to each well. Plates were covered with metal lids with gas-exchange holes.
9; Incubate; 15 min; Incubate at room temperature.
10; Detector; Luminescence; Measure luminescence with ViewLux microplate reader (PerkinElmer) equipped with clear filters.
NOTES (numbers refer to sequence above)
1; HEK-293-SNCA-luc were cultured and suspended in phenol-red free DMEM (4.5 g/L glucose, 25 mM HEPES, cat #21063 (Thermo)).
3; Compounds were added to the assay plate in an 11-point intra plate dose response, 1:3 titration in DMSO with a final concentration range of […]. Vehicle-only plates, with DMSO being pin-transferred to every well, were inserted at the beginning of screening runs to confirm expected assay performance. Activity was normalized to wells containing medium only (-100% activity, full inhibition) and SNCA-luc cells treated with DMSO vehicle control (0% activity), contained on the same plate as test samples.
10; Signals were analyzed, and dose-response curves were fit using the Hill equation. Compounds in curve classes -1.1, -1.2, -2.1, -2.2 in the SNCA-luc assay were considered active. Compounds were eliminated from further consideration if also active (curve class -1.1, -1.2, -1.3, -1.4, -2.1, -2.2, -2.3, -2.4) in the GF-AFC cytotoxicity assay.
Potency means the concentration at half of the fitted maximal effect; tags describe the fitted curve by direction and shape.

Potency, inconclusive:
COc1ccccc1N1CCN(C2CCCN(C(=O)c3ccc4nc(C)[nH]c4c3)C2)CC1 (configuration not stated) 7.08 µM [inhibitor, single point]
O=C(NC1CCCCC1)c1nc2sccn2c1-c1cccc(C(F)(F)F)c1 39.8 µM [inhibitor, single point]
Cn1nccc1CN1CCn2c(nn(-c3ccc(C(F)(F)F)cc3)c2=O)C1 39.8 µM [inhibitor, single point]
CNC(=O)CCn1ncc2cc(OC3CCc4cccc(-c5cccnc5OC)c43)ccc21 (configuration not stated) 25.1 µM [inhibitor, single point]
O=C(c1ccc2cccnc2c1O)N1CCCC(CCc2ccccc2F)C1 (configuration not stated) 10 µM [inhibitor, partial curve]
COc1ccc(CCNC(=O)c2cc(=O)[nH]c3ccc(S(=O)(=O)N4CCCCC4C)cc23)cc1OC (configuration not stated) 17.8 µM [inhibitor, single point]
CC(C)c1ccc(Cn2ccc3c4c(N)nc(NC5CC5)nc4ccc32)cc1 6.81 µM [inhibitor, partial curve, poor fit]
CC(=O)NC[C@H]1O[C@H](Cc2cc(CN3CCN(c4ccccc4)CC3)on2)CC[C@@H]1O 17.8 µM [inhibitor, partial curve, poor fit]
CN1CC(=O)N(c2ccc(Cl)cc2)Cc2c1ncnc2N1CCC(Cc2ccccc2)CC1 1.26 µM [inhibitor, partial curve, poor fit]
O=C(Cn1nc2n(c1=O)CCN(Cc1cccc(Cl)c1)C2=O)NCCC1=CCCCC1 3.98 µM [inhibitor, partial curve, poor fit]
COc1ccccc1CNC(=O)CSc1nc(=O)[nH]c2c1CCCC2 2.51 µM [inhibitor, full curve]
CCc1nc2c(=O)n(CC(=O)NCc3ccco3)nc(C)c2s1 39.8 µM [inhibitor, single point]
COc1cc(OC)c(NC(=O)Cn2cnc3sc(C)c(S(=O)(=O)N4CCC(C)CC4)c3c2=O)cc1Cl 0.891 µM [inhibitor, full curve, poor fit]
Cc1ccc(NC(=O)CCn2c(=O)c3cccn3c3ccccc32)cc1Cl 39.8 µM [inhibitor, single point]
Cc1ccc2c(n1)N(C)[C@H](CO)CCN(Cc1ccc(C(F)(F)F)cc1)C2 56.2 µM [inhibitor, single point]
COc1cccc(C(=O)N2CCN(c3nccc(Nc4ccccc4OC)n3)CC2)c1 2 µM [inhibitor, partial curve, poor fit]
CCOc1ccc(NC(=O)N2CCC(CC(=O)NCc3ccccc3)C2)cc1 (configuration not stated) 2 µM [inhibitor, partial curve, poor fit]
O=C1CCN(C(=O)c2ccsc2)CCCC(c2nc(-c3cnccn3)no2)CCN1 (configuration not stated) 3.16 µM [inhibitor, single point]
O=C(CN1C(=O)NC(c2ccc(Cl)cc2)C2=C1COC2=O)Nc1ccc(Br)cc1F (configuration not stated) 15.8 µM [inhibitor, partial curve, poor fit]
C[C@@H](NC(=O)C[C@@H]1c2nc(NC(=O)CC(C)(C)C)sc2C[C@@H]2[C@](C)(CO)[C@H](O)CC[C@]21C)c1ccccc1 31.6 µM [inhibitor, single point]
Cc1cc(C(=O)N2CCOC[C@H](Oc3ccc(S(C)(=O)=O)cc3)C2)no1 17.8 µM [inhibitor, partial curve, poor fit]
CCN1c2cc(C(=O)Nc3ccc(F)c(Cl)c3)ccc2C(=O)N2CCCCCC21 (configuration not stated) 39.8 µM [inhibitor, single point]
Cn1ccc2c(C(=O)NCC3CCC(=O)N3)nc(-c3ccccc3)cc21 (configuration not stated) 3.16 µM [inhibitor, partial curve, poor fit]
O=C(NCc1ccccc1C(F)(F)F)c1cc2n(n1)CC(c1ccc3c(c1)OCO3)OC2 (configuration not stated) 25.1 µM [inhibitor, single point]
CC1=C[C@@H](CNC(=O)Nc2ccc(F)cc2)[C@H](C(C)C)C[C@H]1Cc1nc2c(C)cccc2[nH]1 28.2 µM [inhibitor, partial curve, poor fit]
O=C(NC1CCN(c2cc(-c3ccc(F)cc3)[nH]n2)C1)c1ccc2[nH]ccc2c1 (configuration not stated) 8.91 µM [inhibitor, single point]

Potency, inactive:
O=C(Nc1ccc2c(c1)OCCO2)N1CCC(c2nc(C3CCOCC3)no2)CC1
O=C(CC1CCCCN(Cc2ccccc2)C1=O)NCc1ccc(F)cc1F (configuration not stated)
COc1cc(OC)cc(C(=O)Nc2ccc(-c3nc4ccccc4s3)c(C)c2)c1
CN1CCCC(c2n[nH]c(=O)n2-c2ccc3c(c2)OCO3)C1 (configuration not stated)
CNC(=O)c1ccc2ccnn2c1
COc1ccc(-c2cn3cc(C(=O)NC4CC4)nc3s2)cc1
COc1ccc(CN2C(=O)O[C@@H]3CN(S(=O)(=O)N(C)C)C[C@@H]32)cc1OC
COc1ccc(-c2cc(-c3cccc(C(N)=O)c3)cn3cncc23)cc1
COc1ccc(N2CC3CCC(C2)N3C(C)=O)cc1
COCCN1C(=O)c2cccn2CC1CNC(=O)c1cccc(C)c1 (configuration not stated)
CCOc1ccc(C(=O)NC(C)C(=O)N2CCN(c3ccccn3)CC2)cc1 (configuration not stated)
COc1cccc(-c2cccc(C(=O)N3CCCC3C(=O)NCc3ccc(F)cc3)c2)c1 (configuration not stated)
Cn1c(CNC(=O)c2cccc(C3CCNC3)c2)nc2ccccc21 (configuration not stated)
O=C(NC1CCCN(c2cc(-c3ccc(F)cc3)[nH]n2)C1)c1c[nH]c2ccccc12 (configuration not stated)
O=C(NCc1ccc(F)cc1)c1cc(-c2cccs2)c2cccn2n1
CC1(c2ccccc2)N(Cc2ccc(O)cc2)C(=O)OC12CCN(C(=O)c1cnccn1)CC2 (configuration not stated)
